± gives the standard deviation of the averaged measurements. This is one part of the list.
tested on: PfAP2-LT AP2 domain (GST-tagged); experiment: gcPBM binding intensity (ln(normalized median fluorescence intensity)); higher = stronger DNA binding
In short: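 In this array assay, P. falciparum DNA-binding domains with a GST tag, expressed in E. coli, were applied for 1 h to primer-extended double-stranded 36-bp intergenic genomic probes and negative controls on an Agilent 4 × 180k array. Bound protein was visualised with Alexa488 anti-GST antibody at 488 nm. Binding intensity is the highest Masliner-normalised natural-log median intensity across replicate spots of either probe orientation.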

| Sequence | gcPBM binding intensity (ln) |
| --- | --- |
| TCGCAAATAAATTAATGTACACATATATATATATAT [XGTACX_site5145] | 9.21 ± 0.47 |
| GCACTAAAAAAATAAACACACAGATTTATATAATAT [CACACA_site1381] | 8.97 ± 0.49 |
| AATAAGTTATTATTTTGTACACATAAATAATACGTT [XGTACX_site814] | 8.69 ± 0.51 |
| AAGGAACTATAATATACACACATAAGTGTACTTATA [CACACA_site7816] | 8.94 ± 0.4 |
| ATATATGCATATATTTGTACACATTTTTTTACATAA [XGTACX_site4624] | 8.87 ± 0.42 |
| AAAAAAACGTAAAAATGTACTTTTTGTATATAACCT [XGTACX_site7950] | 8.77 ± 0.5 |
| AAACAAAATAAATATGAACACACACCGTTATGCCTT [CACACA_site8347] | 9.29 ± 0.39 |
| AGGAAAATTATGAATGGTACAGAATATATTAGGAGA [XGTACX_site6282] | 8.89 ± 0.53 |
| TATTTGTGGATTTTTACACACATTAATATATATATA [CACACA_site3375] | 8.9 ± 0.34 |
| TTATAAAATAAACTTACACACATGAAATATTATATT [CACACA_site1945] | 8.74 ± 0.42 |
| ACATAGATGCATATCACACATAATAATATTGTCGTA [CACACA_site4819] | 9.12 ± 0.43 |
| TAAAGCGACATTTGGAAAATATATATCCTAGCATTT [CACACA_negctrl_site327] | 8.77 ± 0.39 |
| TATTCGTGCAATAGTAGTACACTTAAAAATTATTCA [XGTACX_site269] | 8.61 ± 0.45 |
| ATTCGTTATAAAATATGTACATAAATATATATATAT [XGTACX_site2819] | 8.89 ± 0.3 |
| AAAATACACAGACACACACACATATAAATAAATATT [CACACA_site7871] | 9.79 ± 0.19 |
| TAATATTTCGCACTGTGTACTGAAATATTTATATCG [XGTACX_site516] | 8.76 ± 0.36 |
| GTAGACTGAAACCACACACACATATATATATATATT [CACACA_site605] | 9.8 ± 0.13 |
| ATAATAAGACGATAAGGTACACAAAATGTTAATATA [XGTACX_site6984] | 9.06 ± 0.43 |
| TATTCAAATTTCCACATACACACCTTGTAGATATAT [CACACA_site281] | 8.88 ± 0.43 |
| AAGAAAAAAAGCAACACACGTACCAACACAATTATG [CACACA_site3133] | 9.51 ± 0.35 |
| AAGACAAATTTTACATGTACAAATATATTACATATA [XGTACX_site7060] | 8.81 ± 0.27 |
| AATAATAATAAAAATAAACACACATATATATGTATA [CACACA_site8928] | 8.94 ± 0.35 |
| ATTTCTTTTGTTATAGTGCATAATATTTATGTACGT | 8.9 ± 0.44 |

| Sequence | gcPBM binding intensity (ln) |
| --- | --- |
| AAAGAAAGAAAGAAAAGTACTTAAACTTTTAAAAAT [XGTACX_site8531] | 8.54 ± 0.69 |
| ATATTAATATATAGAAGTACTCACATGTTAATATAA [XGTACX_site7323] | 8.72 ± 0.47 |
| TTAAATAAATAAATAACACACATATAAAAATAACGC [CACACA_site3266] | 9.2 ± 0.33 |
| TAACTATCATGTATTACACACAATATTTATTATATA [CACACA_site2701] | 8.85 ± 0.47 |
| GAATAATATGGACATACACACATATACATACATATA [CACACA_site2114] | 9.27 ± 0.39 |
| TTATTTCATTCTTGAAGTACGTGAAAAATGAAAACA [XGTACX_site4089] | 8.44 ± 0.33 |
| TTACCTTTATTGTATGAACACACATAAGCTGATACA [CACACA_site9334] | 8.87 ± 0.35 |
| AAAAAAAAAAAAAGAGTGCAAACTATGATAATTTAA | 8.82 ± 0.63 |
| ACATATGAATATAATACACACTTGTATTATTAATAT [CACACA_site8546] | 8.94 ± 0.35 |
| CCATTTTTTTTATACGCACACGTCATACTTTTAAAA [CACACA_site4988] | 9.19 ± 0.57 |
| AAAATTTAATATAATGCACACATAAAAAAAAAAAAA [CACACA_site7923] | 8.85 ± 0.42 |
| TATATATATACATATTGTACATGTGTATATTTTTTT [XGTACX_site361] | 8.92 ± 0.44 |
| TTAGTTATTAAAAAAAGTACATAAGTAGATATCATC [XGTACX_site8712] | 8.7 ± 0.45 |
| AATATATGTAATATATGTACTTAATTATATTTTAAT [XGTACX_site4382] | 8.66 ± 0.42 |
| TATAAAATATAATTAGCACACATATATAAAATATAT [CACACA_site9355] | 8.77 ± 0.4 |
| TACTAATATGATATATAAATATTGTTATATAATAAT [XGTACX_negctrl_site227] | 8.46 ± 0.5 |
| TGAATACAAATTTACGCATGTAATTTCCAGAGGGAG [TGCATGCA_site769] | 8.75 ± 0.48 |
| AAAATAAAAGAAAAAAGTACAAAATCAGATTAATTA [XGTACX_site8413] | 8.74 ± 0.54 |
| ATATAAAACTATAATACACACATAAAATATATTATA [CACACA_site6588] | 8.94 ± 0.37 |
| GTATATTTTTAAAGGTGTACTTTTTTTTTTTTTTTT [XGTACX_site721] | 8.55 ± 0.65 |
| TATATTTATTTATTCTGTACTGAAGACAGTTATGTA [XGTACX_site8857] | 8.59 ± 0.59 |
| TATATAATACAACATGCACACATATATATGTGAATC [CACACA_site8794] | 9.29 ± 0.29 |
| ATAAATATATATATAGTGCATATAAGCCACCTTCAA [GTGCAC_site9628] | 8.75 ± 0.45 |

| Sequence | gcPBM binding intensity (ln) |
| --- | --- |
| CGTAATAAAAACAAATGTACATGACCTGGACAGGTT [XGTACX_site6560] | 8.97 ± 0.47 |
| ATTTATATATAATATACACACATATAATACCCATAT [CACACA_site4548] | 9.07 ± 0.27 |
| TTTTTTAACTGTATGATGTTATATTAAAAATAAAAA [GTGCAC_negctrl_site463] | 7.92 ± 0.4 |
| AACGCACGAGGACACACACACATATTTATATTTATA [CACACA_site6608] | 9.82 ± 0.41 |
| ATTTAAAAAAAAAAAAAAAAAAAAAAAAAAAGAAAA [CACACA_negctrl_site722] | 8.15 ± 0.53 |
| TAATCCTTTCAATATTGTACACATTTGTGTTAAGAA [XGTACX_site1275] | 8.66 ± 0.47 |
| TATATTATGACCACCACACACCTATACACATAACAT [CACACA_site7199] | 9.45 ± 0.16 |
| TTTAATATTAGCATATGTACACAAATCACACGGAAA [XGTACX_site2473] | 8.79 ± 0.36 |
| ATATATTTTATATAATGTACATAAACCGCACACATA [XGTACX_site6061] | 9.3 ± 0.33 |
| TTTCAAATTTAATACACACACAAGTATATATCTATC [CACACA_site7782] | 9.15 ± 0.48 |
| TCATACGAAATATAAACACACATACAATAAATAAAT [CACACA_site5156] | 9.22 ± 0.36 |
| ATAATATAAATACAAACACACAATTGCGTCCACATT [CACACA_site5039] | 9.28 ± 0.51 |
| ATTTAATTTGTTCTTACACACACATATATATATATT [CACACA_site8310] | 9.6 ± 0.37 |
| TCAAATATATAGAATACACACATGGATATAAGAAAT [CACACA_site4065] | 9.2 ± 0.4 |
| GGACAAGAATAGTGCACATGCAATGTTATTTTTTAT [TGCATGCA_site450] | 9.06 ± 0.65 |
| ATTATAACCATATACACACCCATATAAATAAATATA [CACACA_site6926] | 9.08 ± 0.28 |
| CGTTTTAATAAGATCACACATATAATATATATATAT [CACACA_site5159] | 8.78 ± 0.23 |
| TATTAAATGGCCATTACATGCAATTATTTCTAATAA [TGCATGCA_site275] | 8.54 ± 0.42 |
| ATATTAAATGTTATCACACACATAATTACTTCCATA [CACACA_site7160] | 9.21 ± 0.38 |
| GCATATAAAATAAATCGTACATGTAAAACATAATTA [XGTACX_site7077] | 8.9 ± 0.4 |
| GCTGAAAGGATAAAGGTGCATATTTTTTAAAAAATT [GTGCAC_site9487] | 8.7 ± 0.49 |
| AATATTTTATATGTAGTGCATTACTATAGGATTTAT [GTGCAC_site9424] | 8.7 ± 0.36 |
| TTTTTTTTTTTTATATGTACTAATAATCTTTTTTTT [XGTACX_site3552] | 8.58 ± 0.51 |

| Sequence | gcPBM binding intensity (ln) |
| --- | --- |
| TGCTTATATCTTATAATATTTATACATCATAATAAG [CACACA_negctrl_site629] | 8.47 ± 0.47 |
| TGTGTCAAATAATTAATGTCATATATATTTTGTATA [CACACA_negctrl_site1479] | 8.59 ± 0.38 |
| ACAAAATAAACGGCTGCACACAAGAAGCACAATATT [CACACA_site3690] | 9.55 ± 0.47 |
| GGCAGCAATTTAGTTACACACATATATAGGTATACA [CACACA_site76] | 9.21 ± 0.41 |
| GATAGAAAAAAATAATGTACACACACATATATGTTT [XGTACX_site392] | 9.34 ± 0.46 |
| TTTCTTTTTTCTGTTATTATTATAAAACGATATTTA [TGCATGCA_negctrl_site167] | 8.42 ± 0.45 |
| TATTTTTATTTTAATTGTACTTTTTAATTAATAATA [XGTACX_site8302] | 8.39 ± 0.48 |
| TACACATACCCATACACACGCATAGAAACATACGAA [CACACA_site5212] | 9.33 ± 0.42 |
| ATACATATTCTTATTTGTACTTATTATAAAATGGTC [XGTACX_site6584] | 8.79 ± 0.38 |
| TAACTGATATATAAAACACACATCATAAAAATATAA [CACACA_site6499] | 8.9 ± 0.4 |
| ACAATAATTTCCATCACACATATATTTATATATTAC [CACACA_site6003] | 8.99 ± 0.44 |
| TTGCATCTACATTTATGTACATATCTTATGATAAAT [XGTACX_site2146] | 9.15 ± 0.39 |
| AAATATATCTTCTTTGCACACTTAAAGGGAAGTGAT [CACACA_site343] | 8.79 ± 0.32 |
| AGATATATTTTTTAAATTTAAAAATTATAAAATTTA [CACACA_negctrl_site533] | 8.05 ± 0.51 |
| AATTATACTCACGTTACACACACACTATATATATAT [CACACA_site9375] | 9.67 ± 0.18 |
| TCAAAATGTTACAAATTATGTTGGCTAAAATTTTAA [TGCATGCA_negctrl_site188] | 8.21 ± 0.33 |
| TTGAACCTGATAAATACACACAATATAGATTTTTTT [CACACA_site7091] | 8.77 ± 0.41 |
| ACACATATAAATAAAACATGCATATGTAAATATATA [TGCATGCA_site403] | 9.23 ± 0.44 |
| TATAATATAATATTTTGTACATATGATAAAAAAAAA [XGTACX_site6858] | 8.44 ± 0.42 |
| TTATAATATGTATACACACACATATATAAATATATA [CACACA_site2326] | 9.12 ± 0.32 |
